SMILES strings stand for the structures. Values joined by “and” are separate entries in the source; they are usually repeats but may differ in a detail not shown here. Equal values may be shown once.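 All cell lines were grown in 96-well plates and treated with compound for 48 hours. GI50: concentration for 50% inhibition of growth. TGI: total growth inhibition.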 Peptide text beside a SMILES is read from it. * marks the point of attachment. Boc = CC(C)(C)OC(=O)* Where only a bound is given, the exact number is not on record here.

The assay deals with NCI-H322M lung. In words: DTP human tumour cell line panel, 48 h.
For `Oc1ccccc1N=Cc1c(O)ccc2ccccc12`, the GI50 (as a rule, the concentration giving 50% growth inhibition) was 13.6 µM and the TGI – broadly, the concentration giving total growth inhibition – was determined as 45.5 µM. The molecule `CCOCc1cc(=O)c2c(O)cc3c(c2o1)CCC(C)(C)O3` returned a TGI greater than 100 µM.

With `COc1ccc2c(c1)OCC1c3cc(O)ccc3OC21` (stereo unspecified), the GI50 was greater than 100 µM and the concentration for total growth inhibition (TGI) was greater than 100 µM. On to `Cc1c(C(=O)O)nc(/C=C/C(=O)O)[nH]c1=O`, for which the TGI is greater than 100 µM.

Turning to `S=C(N/N=C/c1ccccc1)NC12CC3CC(CC(C3)C1)C2`, the TGI was greater than 100 µM. Same read-out and setting: the result for `CCC(=O)O[C@H]1CC[C@H]2[C@@H]3CCC4=CC(=O)C=C[C@]4(O)[C@H]3CC[C@]12C` reads greater than 100 µM.

Turning to `CN1C(=O)N(C)C2C1NN=c1s/c(=C\c3ccccc3F)c(=O)n12` (stereo unspecified), the GI50 was 0.705 µM and the total growth inhibition concentration (TGI) is greater than 100 µM. The molecule `N#CC(/C(=N/N=C(N)N)C(=O)Nc1ccccc1[N+](=O)[O-])c1nc(-c2ccc([N+](=O)[O-])cc2)cs1` (stereo unspecified) returned a TGI greater than 100 µM. On the same count and under the same terms, the result for `O=C(CCN1CCCCC1)Nc1ccc2sc3ccccc3c(=O)c2n1` reads 50.1 µM; that for `O=C1c2ccccc2C2=Cc3ccccc3C(O)N12` (stereo unspecified), greater than 100 µM; that for `O=c1c2c3c(sc2nc(CN2CCNCC2)n1-c1ccccc1)CCCC3`, greater than 100 µM.

For the molecule `COC(=O)C1CCC(NC(=O)c2csc([C@@H](C[C@H](C(C)C)N(C)C(=O)[C@@H](NC(=O)[C@H]3CCCCN3C)C(C)C)OC(C)=O)n2)CC1` (stereo partly specified), the GI50 was 0.007 µM and 0.0136 µM; the concentration for total growth inhibition (TGI) was greater than 33.3 µM. With `N#CC(NCCc1ccccc1)c1ccccc1` (stereo unspecified), the TGI was greater than 100 µM. Still for that read-out and setting: under `N#CC(C#N)N=Nc1ccc(-c2nc3ccccc3[nH]2)cc1` stands greater than 100 µM; under `C/C(=N\NC(C)(C)C)c1sc(-c2nc(C)c(/C(C)=N/NC(C)(C)C)s2)nc1C`, greater than 100 µM; under `COc1ccc(N=Nc2c(O)ccc3ccccc23)cc1`, greater than 100 µM. The same measure, in the same setting: the result for `CC1CC(C)CN(S(=O)(=O)c2cc(Cl)c(Oc3ccc([N+](=O)[O-])cc3Cl)c(Cl)c2)C1` (stereo unspecified) reads greater than 100 µM. For `C[C@H](O)CNc1cc(-c2[nH]c3cccnc3c2-c2ccc(F)cc2)ccn1`, the GI50 was greater than 17.2 µM and the TGI was greater than 25 µM. Turning to `COc1ccc2cc(C(=O)Nc3ccc(O)c(C(=O)O)c3)ccc2c1OC`, the TGI was greater than 100 µM. On to `O=c1n(N=S(=O)(c2ccccc2)c2ccccc2)c(=O)n2n1C1C=CC2CC1`, for which the TGI was greater than 100 µM.

`COc1cc(/C=C/c2ccc(/C=C/c3cc(OC)c(OC)c(OC)c3)cc2)cc(OC)c1OC` had a TGI greater than 80.8 µM.

Molecule `COc1ccc(N2C(=O)C3c4[nH]c5ccc(C)cc5c4C4CCC(c5ccccc5)CC4C3C2=O)cc1` (stereo unspecified) yielded a TGI greater than 100 µM. Still for that read-out and setting: under `CC#CC(OCC)(OCC)OCC` stands greater than 100 µM. On to `CC(C)CCC[C@@H](C)[C@H]1CCC2C3=CCn4c(=O)ccc(=O)n4C3CC[C@@]21C` (stereo partly specified), for which the GI50 was 1.27 µM and the TGI amounted to 2.65 µM.

Consider `COc1ccc2nc(C)cc(NCCCCCCCCCNc3cc(C)nc4ccc(OC)cc34)c2c1`, for which the TGI came to 11.6 µM. Same read-out and setting: the result for `CC1=C(C(=O)NNC(=O)c2ccccc2)CC(C(=O)NNC(=O)c2ccccc2)=C(C)N1` reads greater than 100 µM; that for `c1ccc2c(c1)c(N1CCCCC1)cc1nc3c(cc(N4CCCCC4)c4ccccc43)nc12`, greater than 100 µM; that for `Cc1ccc(C(N)=Nc2ccccc2)cc1`, greater than 100 µM. The same measure, in the same setting: under `CCOC(=O)c1sc2nc(SC)nc(N3CCCCC3)c2c1N` stands greater than 100 µM. Still for that read-out and setting: under `CC(=O)CC(O)(C(F)(F)Cl)C(F)(F)Cl` stands greater than 10 µM. As to `CCOC(=O)C1=C(N)CCC1C` (stereo unspecified), the GI50 was greater than 100 µM and the TGI is greater than 100 µM. The molecule `O=S(=O)(O)c1ccc(N=Nc2ccc(N=Nc3c(O)ccc4ccccc34)c(S(=O)(=O)O)c2)cc1` had a TGI greater than 100 µM. Still for that read-out and setting: under `O=c1[nH]c2ccc(C(F)(F)F)cc2nc1Cc1ccccc1` stands greater than 100 µM. With `CC(=O)N1N=C(c2cc(C)ccc2O)CC1c1cccc(Cl)c1` (stereo unspecified), the TGI was greater than 100 µM. Consider `O=C1Cc2c([nH]c3ccc([N+](=O)[O-])cc23)-c2ccccc2N1`, for which the TGI came to 9.37 µM. As for `CCN(CC)CCNC(=O)c1cn2ncnc(Oc3ccc(NC(=O)Nc4ccc(Cl)c(C(F)(F)F)c4)cc3)c2c1C`, the GI50 is 1.58 µM and the TGI worked out at 2.94 µM. In turn, `CC1CCN(CCC(=O)CC(c2ccccc2)c2c(O)c3ccccc3oc2=O)CC1` (stereo unspecified) displayed a TGI greater than 100 µM.

Take `COC(=O)C(CCC1C=CN(S(=O)(=O)c2ccc(C)cc2)C1)N=Cc1ccccc1` (stereo unspecified): the TGI is greater than 100 µM. For the molecule `CCOC(=O)c1ccc2[nH]c(O)c(C(=Nc3ccc(N(C)C(=O)CN4CCN(C)CC4)cc3)c3ccccc3)c2c1`, the GI50 was 1.44 µM and the TGI is 4.14 µM. Take `CC1CC2=C(C1)C(C1(C)C(=O)CC3C(C1=O)C3(C)C)C(C)C2=O` (stereo unspecified): the total growth inhibition concentration (TGI) is greater than 100 µM.

Regarding `Cc1cn(CCCCCCOC(=O)NC(CCCN=C(N)N)C(=O)O)c(=O)[nH]c1=O` (stereo unspecified), the TGI was greater than 100 µM. On the same count and under the same terms, under `NC(=O)NC(=O)c1cccc(NC(=O)CI)c1` stands 15.8 µM. For `CCOc1ccc2nc(S/C(=C/C=C(C#N)C#N)c3ccc(Cl)cc3)sc2c1`, the GI50 was 17.4 µM and the TGI worked out at 35.1 µM.

As for `COc1cc(C2C3=C(COC3=O)Oc3cc4c(cc32)OCO4)cc(OC)c1OC` (stereo unspecified), the GI50 is less than 0.0198 µM and the TGI was 21.3 µM.

In the case of `CC(NC(=O)C(Cc1ccc(OC(=O)c2ccccc2)cc1)NC(=O)OC(C)(C)C)C(=O)NCC(=O)NC(Cc1ccccc1)NC(=O)OCc1ccccc1` (stereo unspecified), the TGI was greater than 100 µM. For `CC1=CCCC(C)(O)C2CC(CCC3(C)OC3CC1)C(C)C(=O)O2` (stereo unspecified), the concentration for total growth inhibition (TGI) was greater than 100 µM. Regarding `NC(=O)c1c2c(n3ccccc13)C(=O)c1ccccc1C2=O`, the TGI was greater than 100 µM.

Consider `CCOC(=O)C(NC(=O)CC)(Nc1ccc(S(=O)(=O)Nc2ncccn2)cc1)C(F)(F)F` (stereo unspecified), for which the TGI was greater than 100 µM. Still for that read-out and setting: under `Nc1ccc2nc3n(c(=O)c2c1)CCCCC3` stands greater than 100 µM. Take `CCCN1C(=O)/C(=C/c2cccc(O)c2)SC1=Nc1ccc(OC)cc1`: the GI50 was 3.64 µM and the concentration for total growth inhibition (TGI) came out at 10.7 µM.

For the molecule `CC(C)(OCc1ccccc1)c1ccccc1P(c1ccccc1)c1ccccc1`, the TGI was greater than 100 µM. `CCOC(=O)c1nc2cc(C(F)(F)F)ccc2nc1Nc1ccc(OC)c(OC)c1` yielded a TGI greater than 100 µM.

`Cn1c(=O)c2c3ccccc3c(C(=O)c3ccccc3)n2c2ccccc21` displayed a TGI greater than 100 µM. The same measure, in the same setting: the result for `Cc1ccc(NC(=O)C(=O)C(C2C(C)CC(=O)C2CC(=O)O)[N+](=O)[O-])cc1` (stereo unspecified) reads greater than 100 µM; that for `Cc1ccc(S(=O)(=O)NC2C(=O)c3ccccc3C(=O)C2n2ccnc2)cc1` (stereo unspecified), 28 µM. As for `Cc1cc(C(=O)NC(C)(C)C)cc(C#Cc2ccc3c4c(oc3c2)C(C)(C)c2cc(NS(C)(=O)=O)ccc2C4=O)n1`, the GI50 was 2.25 µM and the TGI is greater than 100 µM. `O=C1CC[C@@]2(O)[C@H]3Cc4ccc(-c5cccc(O)c5)c5c4[C@@]2(CCN3CC2CC2)[C@H]1O5` yielded a TGI greater than 100 µM. Same read-out and setting: the result for `Cc1ccc2nc(-n3c(/C=C/c4ccccc4O)nc4ccccc4c3=O)sc2c1` reads greater than 100 µM; that for `COc1cc(C2c3cc4c(cc3CC3COC(=O)N32)OCO4)cc(OC)c1OC` (stereo unspecified), greater than 100 µM; that for `CCCCCc1cc2cc3c(c(O)c2c(=O)[nH]1)C1(CC3)C(O)=c2c(=O)c3c(=O)cc(OC)c(=O)c=3c(=O)c2=C1O` (stereo unspecified), 6.07 µM. Turning to `CN1C(=O)/C(=C/c2c(Cl)[nH]c3ccccc23)c2ccccc21`, the GI50 is 22.5 µM and the concentration for total growth inhibition (TGI) worked out at 74.1 µM. As for `C=C(CN(C)C)C1(c2ccccc2)CC2(CCCC2)C(=O)O1` (stereo unspecified), the TGI was greater than 100 µM. Same read-out and setting: the result for `CCOC(=O)c1nc2ccccc2nc1Nc1ccc(Cl)c(Cl)c1` reads greater than 100 µM. Still for that read-out and setting: under `CC1C2C=CC1C(c1c3ccc(=O)c(O)c-3oc3c(O)c(O)ccc13)C2C(=O)O` (stereo unspecified) stands greater than 100 µM; under `CC(NC(=O)OC(C)(C)C)C(=O)NC(Cc1ccccc1)C(=O)NCC(=O)O` (stereo not drawn) (Boc-Ala-Phe-Gly-OH; configuration not given here), greater than 100 µM. In the case of `Cc1ccc(-c2cc3c(NC(=O)C4CC4)ncnc3o2)cc1`, the GI50 was greater than 25 µM and the TGI is greater than 25 µM. In the case of `CCc1c2c(nc3ccc(OC(=O)NCc4ccc(B5OC(C)(C)C(C)(C)O5)cc4)cc13)-c1cc3c(c(=O)n1C2)COC(=O)[C@]3(O)CC`, the GI50 is 0.113 µM and the TGI is 7.05 µM. On the same counts, the results for `Cc1ccc(NCCN2CCCCC2)c2c(=O)c3ccccc3sc12` are 2.17 µM and 11.4 µM. In the case of `O=C1c2ccccc2C(=O)c2c1ccc(C(Br)Br)c2Cl`, the GI50 is 11.1 µM and the TGI was 23.1 µM. For `COc1ccc2c(c1)CCC1C2CCC2(C)C3=CC(O)CCC3CC12` (stereo unspecified), in that order: 16.9 µM and 31 µM. In the case of `OCC#Cc1ccccc1C#CCCCCCCC#Cc1ccccc1C#CCO`, the GI50 was 18.3 µM and the TGI is 33.3 µM. With `CC1=C(C)C(=O)C2=C(OCCO2)C1=O`, the TGI came out at 31.8 µM. On the same count and under the same terms, the result for `CCOC(=O)C(Cc1ccc([N+](=O)[O-])cc1)NC(=O)CC1c2ccccc2-c2ccccc21` (stereo unspecified) reads greater than 100 µM. Same read-out and setting: under `COc1ccc2nc3c([N+](=O)[O-])ccc4c3c(c2c1)N(CCCN(C)C)C(=S)N4CCCN(C)C` stands 19.4 µM. Still for that read-out and setting: the result for `Cc1occc(=O)c1O` reads greater than 100 µM; that for `O=C(Nc1ccccc1)c1cc(S(=O)(=O)Nc2nc3ncccc3[nH]2)c(SSc2cc(Cl)c(C(=O)Nc3ccccc3)cc2S(=O)(=O)Nc2nc3ncccc3[nH]2)cc1Cl`, greater than 100 µM. `O=C(Nc1nc2ncn(CCNCCn3cnc4nc(NC(=O)c5ccccc5)[nH]c(=O)c43)c2c(=O)[nH]1)c1ccccc1` registered a TGI greater than 100 µM. On the same count and under the same terms, the result for `O=c1ssc2ncccc12` reads greater than 100 µM; that for `Oc1c(-c2ccccc2)nc2ccccn12`, greater than 100 µM. In turn, `N#Cc1cc(-c2nc3ccc(F)cc3s2)ccc1N` showed a TGI greater than 100 µM. `C=C(CN(C)C)C(=O)c1ccc(OC2OC(COC(C)=O)C(OC(C)=O)C(OC(C)=O)C2OC(C)=O)cc1` (stereo unspecified) came in with a TGI of 32.6 µM. As for `CC(C)=CCC/C(C)=C\CC/C(C)=C/CO`, the TGI was greater than 100 µM.

With `Cc1ncc(CO)c(C=NCCCCCCN=Cc2c(CO)cnc(C)c2[O-])c1[O-].[Cu+2]`, the TGI is greater than 100 µM.

The molecule `COc1ccc(/C(Cl)=C(\C=O)c2ccc(Cl)c(Cl)c2)cc1` returned a TGI of 29.4 µM.

Consider `Cn1c2c(c3ccc(-c4ccn[nH]4)cc3c1=O)C(=O)c1ccccc1-2`, for which the GI50 was 7.01 µM and the TGI was greater than 100 µM.

These data come from PubChem BioAssay (NCI).
